# Measured values: the supplement of paper PMC8728848
# Some of the results follow.
# B1: B1567 (Bifidobacterium sp) (protein)
# chain: MKFTTAKKAVALTGAVAMLVSVAACGSDSGKSSQPAQDSDVKEITVWAWEPSLTQVAKDFEKETGIKVDLKNVGTNTKEYTQLDNAIEAGSGAPDVAQVEYYAVPQYAIKGNLLDITDKTSGYKDFYTPGPWASVQFAGKVYGLPMDSGPMAFFYNKEVFDKAGVDAEQIKTWDQYYDAAKKIHALGDNYYITSDTGDAGFFDSMTWLAGAKPFQTSSDGSEVTVNLTEDKGVKTFTDFWQKLLDEGLLDTKTAGWSEDWFKGMVDGTIASLFTGAWMPANLANSAADGAGKWRVTQMPTADGSTTNSENGGSSLAVLASTKKADAAYQFIEYANHGAGVATRVAGGAFPADKASLEKDSFKNATTVKNADGQDVDYFGGQKYNEVLAQAAENVSSGYQFLPFEVKARTIFGDYFGKSYTGDQKLSDGVAAWQKALQDYGKDQGFTVK
# Experiments:
# Test in all cases: glycan array binding signal (z-score within array); higher = stronger binding
# Conditions in all cases: glycan notation: IUPAC condensed, linker removed
# [1] = molecular target: Gal(b1-4)GlcNAc(b1-3)Gal(b1-4)GlcNAc(b1-3)Gal(b1-4)GlcNAc(b1-2)Man(a1-3)[Gal(b1-4)GlcNAc(b1-3)Gal(b1-4)GlcNAc(b1-3)Gal(b1-4)GlcNAc(b1-2)Man(a1-6)]Man(b1-4)GlcNAc(b1-4)GlcNAc
# How it was run: (§1)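 Glycan array data came from 3228 arrays in the Consortium for Functional Glycomics database, and only arrays with an available protein sequence were kept. Glycan names were put into IUPAC-condensed notation, and columns mapping to the same glycan were averaged. The binding signal is a within-array Z-score, averaged across arrays of one protein sequence run at different concentrations or buffers and across linkers. A negative Z-score can be read as non-binding.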
# [2] = molecular target: Gal(b1-4)GlcNAc(b1-3)Gal(b1-4)GlcNAc(b1-3)Gal(b1-4)GlcNAc(b1-2)Man(a1-3)[Gal(b1-4)GlcNAc(b1-3)Gal(b1-4)GlcNAc(b1-3)Gal(b1-4)GlcNAc(b1-2)Man(a1-6)]Man(b1-4)GlcNAc(b1-4)[Fuc(a1-6)]GlcNAc
# How it was run: as §1
# [3] = molecular target: Gal(b1-4)GlcNAc(b1-3)Gal(b1-4)GlcNAc(b1-3)Gal(b1-4)GlcNAc(b1-2)[Gal(b1-4)GlcNAc(b1-3)Gal(b1-4)GlcNAc(b1-3)Gal(b1-4)GlcNAc(b1-6)]Man(a1-6)[Gal(b1-4)GlcNAc(b1-3)Gal(b1-4)GlcNAc(b1-3)Gal(b1-4)GlcNAc(b1-2)Man(a1-3)]Man(b1-4)GlcNAc(b1-4)[Fuc(a1-6)]GlcNAc
# How it was run: as §1
# [4] = molecular target: Gal(b1-4)GlcNAc(b1-3)Gal(b1-4)GlcNAc(b1-3)Gal(b1-4)GlcNAc(b1-3)Gal(b1-4)GlcNAc(b1-2)Man(a1-3)[Gal(b1-4)GlcNAc(b1-3)Gal(b1-4)GlcNAc(b1-3)Gal(b1-4)GlcNAc(b1-3)Gal(b1-4)GlcNAc(b1-2)Man(a1-6)]Man(b1-4)GlcNAc(b1-4)GlcNAc
# How it was run: as §1
# [5] = molecular target: Gal(b1-4)GlcNAc(b1-3)Gal(b1-4)GlcNAc(b1-3)Gal(b1-4)GlcNAc(b1-3)Gal(b1-4)GlcNAc(b1-2)Man(a1-3)[Gal(b1-4)GlcNAc(b1-3)Gal(b1-4)GlcNAc(b1-3)Gal(b1-4)GlcNAc(b1-3)Gal(b1-4)GlcNAc(b1-2)Man(a1-6)]Man(b1-4)GlcNAc(b1-4)[Fuc(a1-6)]GlcNAc
# How it was run: as §1
# [6] = molecular target: Gal(b1-4)GlcNAc(b1-3)Gal(b1-4)GlcNAc(b1-3)Gal(b1-4)GlcNAc(b1-3)Gal(b1-4)GlcNAc(b1-2)[Gal(b1-4)GlcNAc(b1-3)Gal(b1-4)GlcNAc(b1-3)Gal(b1-4)GlcNAc(b1-3)Gal(b1-4)GlcNAc(b1-6)]Man(a1-6)[Gal(b1-4)GlcNAc(b1-3)Gal(b1-4)GlcNAc(b1-3)Gal(b1-4)GlcNAc(b1-3)Gal(b1-4)GlcNAc(b1-2)Man(a1-3)]Man(b1-4)GlcNAc(b1-4)[Fuc(a1-6)]GlcNAc
# How it was run: as §1
# [7] = molecular target: Gal(b1-4)GlcNAc(b1-3)Gal(b1-4)GlcNAc(b1-3)Gal(b1-4)GlcNAc(b1-3)Gal(b1-4)GlcNAc(b1-3)Gal(b1-4)GlcNAc(b1-2)Man(a1-3)[Gal(b1-4)GlcNAc(b1-3)Gal(b1-4)GlcNAc(b1-3)Gal(b1-4)GlcNAc(b1-3)Gal(b1-4)GlcNAc(b1-3)Gal(b1-4)GlcNAc(b1-2)Man(a1-6)]Man(b1-4)GlcNAc(b1-4)GlcNAc
# How it was run: as §1
# [8] = molecular target: Gal(b1-4)GlcNAc(b1-3)Gal(b1-4)GlcNAc(b1-3)Gal(b1-4)GlcNAc(b1-3)Gal(b1-4)GlcNAc(b1-3)Gal(b1-4)GlcNAc(b1-2)Man(a1-3)[Gal(b1-4)GlcNAc(b1-3)Gal(b1-4)GlcNAc(b1-3)Gal(b1-4)GlcNAc(b1-3)Gal(b1-4)GlcNAc(b1-3)Gal(b1-4)GlcNAc(b1-2)Man(a1-6)]Man(b1-4)GlcNAc(b1-4)[Fuc(a1-6)]GlcNAc
# How it was run: as §1
# [9] = molecular target: Gal(b1-4)GlcNAc(b1-3)Gal(b1-4)GlcNAc(b1-3)Gal(b1-4)GlcNAc(b1-3)Gal(b1-4)GlcNAc(b1-3)Gal(b1-4)GlcNAc(b1-2)[Gal(b1-4)GlcNAc(b1-3)Gal(b1-4)GlcNAc(b1-3)Gal(b1-4)GlcNAc(b1-3)Gal(b1-4)GlcNAc(b1-3)Gal(b1-4)GlcNAc(b1-6)]Man(a1-6)[Gal(b1-4)GlcNAc(b1-3)Gal(b1-4)GlcNAc(b1-3)Gal(b1-4)GlcNAc(b1-3)Gal(b1-4)GlcNAc(b1-3)Gal(b1-4)GlcNAc(b1-2)Man(a1-3)]Man(b1-4)GlcNAc(b1-4)[Fuc(a1-6)]GlcNAc
# How it was run: as §1
# [10] = molecular target: Gal(b1-4)GlcNAc(b1-3)Gal(b1-4)GlcNAc(b1-3)Gal(b1-4)GlcNAc(b1-3)Gal(b1-4)GlcNAc(b1-3)Gal(b1-4)GlcNAc(b1-3)Gal(b1-4)GlcNAc(b1-2)Man(a1-3)[Gal(b1-4)GlcNAc(b1-3)Gal(b1-4)GlcNAc(b1-3)Gal(b1-4)GlcNAc(b1-3)Gal(b1-4)GlcNAc(b1-3)Gal(b1-4)GlcNAc(b1-3)Gal(b1-4)GlcNAc(b1-2)Man(a1-6)]Man(b1-4)GlcNAc(b1-4)GlcNAc
# How it was run: as §1
# [11] = molecular target: Gal(b1-4)GlcNAc(b1-3)Gal(b1-4)GlcNAc(b1-3)GalNAc
# How it was run: as §1
# [12] = molecular target: Gal(b1-4)GlcNAc(b1-3)Gal(b1-4)GlcNAc(b1-3)[Gal(b1-4)GlcNAc(b1-3)Gal(b1-4)GlcNAc(b1-6)]GalNAc
# How it was run: as §1
# [13] = molecular target: Gal(b1-4)GlcNAc(b1-3)Gal(b1-4)GlcNAc(b1-6)[Gal(b1-3)]GalNAc
# How it was run: as §1
# [14] = molecular target: Gal(b1-4)GlcNAc(b1-3)Gal(b1-4)[Fuc(a1-3)]GlcNAc(b1-3)Gal(b1-4)[Fuc(a1-3)]GlcNAc
# How it was run: as §1
# [15] = molecular target: Gal(b1-4)GlcNAc(b1-3)GalNAc
# How it was run: as §1
# [16] = molecular target: Gal(b1-4)GlcNAc(b1-3)[Fuc(a1-3)GlcNAc(b1-6)]Gal(b1-4)Glc
# How it was run: as §1
# [17] = molecular target: Gal(b1-4)GlcNAc(b1-3)[Gal(b1-4)GlcNAc(b1-6)]Gal(b1-4)GlcNAc
# How it was run: as §1
# [18] = molecular target: Gal(b1-4)GlcNAc(b1-3)[GlcNAc(b1-6)]Gal(b1-4)GlcNAc
# How it was run: as §1
# [19] = molecular target: Gal(b1-4)GlcNAc(b1-6)Gal(b1-4)GlcNAc
# How it was run: as §1
binder,measurement,setting,value
B1,glycan array binding signal (z-score),[1],0.282
same,glycan array binding signal (z-score),[2],0.333
same,glycan array binding signal (z-score),[3],0.271
same,glycan array binding signal (z-score),[4],0.021
same,glycan array binding signal (z-score),[5],0.252
same,glycan array binding signal (z-score),[6],0.348
same,glycan array binding signal (z-score),[7],0.252
same,glycan array binding signal (z-score),[8],0.106
same,glycan array binding signal (z-score),[9],0.223
same,glycan array binding signal (z-score),[10],1.66
same,glycan array binding signal (z-score),[11],-0.089
same,glycan array binding signal (z-score),[12],-0.057
same,glycan array binding signal (z-score),[13],-0.047
same,glycan array binding signal (z-score),[14],1.8
same,glycan array binding signal (z-score),[15],-0.131
same,glycan array binding signal (z-score),[16],-0.116
same,glycan array binding signal (z-score),[17],-0.165
same,glycan array binding signal (z-score),[18],-0.069
same,glycan array binding signal (z-score),[19],-0.131
